Reference: PubChem BioAssay AID1346428 (National Center for Advancing Translational Sciences (NCATS), 2018)
Hit rate of the full screen: of about 48,000 compounds, about 1,200 (2.5%) were called active. Another 2% or so got no clear call; they are omitted.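 How the source made its calls: active means activation of at least 60% and not above a set upper limit (about 1 call in 100 departs from these limits); inconclusive means activation of 40% to 60%, or above that upper limit; inactive means activation under 40%.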 This is one part of the list.

These molecules were tested against Probable G-protein coupled receptor 32 (Homo sapiens) (UniProt O75388) (assay: qHTS for Agonists of Human Resolvin D1 Receptor DRV1). Conditions: CHO-K1 GPR32 beta-arrestin PathHunter luminescence, 90 min; at 76.9 µM; stronger effect = higher value; zero percent set by DMSO-only wells.
How it was run: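 Engineered CHO-K1 line co-expressing GPR32-ProLink and EA-beta-arrestin. Compound treatment lasted 90 min at 37 °C. Luminescence was recorded after 1 h with substrate at ambient temperature, relative to DMSO basal wells.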
Further: 0% is about no effect.

Chain of UniProt O75388 (O75388 whole entry, looked up): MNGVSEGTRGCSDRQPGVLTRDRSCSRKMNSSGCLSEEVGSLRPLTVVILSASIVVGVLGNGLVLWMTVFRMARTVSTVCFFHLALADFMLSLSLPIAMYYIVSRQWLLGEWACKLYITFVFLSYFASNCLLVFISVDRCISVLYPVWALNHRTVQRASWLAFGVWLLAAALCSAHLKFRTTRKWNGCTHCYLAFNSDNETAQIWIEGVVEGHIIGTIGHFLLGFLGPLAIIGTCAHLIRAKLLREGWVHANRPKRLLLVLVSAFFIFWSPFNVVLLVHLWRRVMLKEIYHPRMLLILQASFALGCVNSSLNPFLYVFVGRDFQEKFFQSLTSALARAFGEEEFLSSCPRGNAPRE

activation, inactive:
Cc1ccc(CNC(=O)c2cc(-c3ccc(C)c(C)c3)nc3ccccc23)cc1 -14.7%, Cc1ccc(C(=O)O)cc1NC(=O)c1nsc2ccccc12 -13.8%, Cc1ccc(NC(=O)C(=O)NCC(c2cccnc2)N2CCN(Cc3ccccc3)CC2)cc1Cl (centres undefined) -3.47%, Cc1cc(Cl)ccc1NC(=O)CSc1nc2c(c(=O)[nH]1)CCC2 -16.2%, COC(=O)c1sc(N2C(=O)c3oc4ccc(C)cc4c(=O)c3C2c2ccc(OC)cc2)nc1C (centres undefined) -2.86%, CCCOc1ccc(Oc2nc(NC)nc(N3CCOCC3)n2)nn1 -9.54%, COc1ccc(CNC(=O)Cn2c(=O)n3nc(-c4ccc(OC)cc4)nc3c3ccccc32)cc1 27.7%, O=C(O)/C=C(\CC(=O)O)C(=O)O 27.6%, CC(=O)c1cccc(NS(=O)(=O)c2ccc3[nH]c4c(c3c2)CCCCC4)c1 31.6%, COc1ccc(NC(=O)C(c2ccccc2)N(C)C(=O)/C=C\c2ccc3c(c2)OCO3)cc1 (centres undefined) -27.8%, Cc1cn2c(=O)c(S(=O)(=O)Nc3ccc(OC(F)(F)F)cc3)c(C)nc2s1 16.9%, COc1ccc(-c2noc(CSc3nnc(C)n3-c3ccc(F)cc3)n2)cc1 -0.748%, COc1ccc(C(CC(=O)Nc2cc(Cl)c(OC)cc2OC)N2Cc3ccccc3C2=O)cc1 (centres undefined) -26.4%, COc1ccc(-c2c(C)nn3c(C(F)(F)F)cc(-c4ccc(C)cc4)nc23)cc1 -8.13%, CCOc1ccc(C(=O)Nc2ccc3nc(Nc4cccc(C(F)(F)F)c4)cc(C)c3c2)cc1OCC 10.5%, Cc1ccccc1OCC(=O)Nc1c(C(=O)Nc2ccccc2F)oc2ccccc12 2.94%, CC(=O)NNc1ncnc2c1cnn2-c1ccccc1 0.0923%, CCOc1ccc(NC(=O)N2CC3CCCN3c3ccccc32)cc1 (centres undefined) -4.33%, Cc1ccccc1NS(=O)(=O)c1ccc2[nH]cc(C(=O)NCCc3ccccc3)c(=O)c2c1 -12.5%, COC(=O)c1cnc(N2CCN(c3ccc(OC)cc3)CC2)c2ccccc12 -22.9%, CCCN(C(=O)c1cn(C)c(=O)c2cc(OC)c(OC)cc12)c1ccc(CC)cc1 -13%, COc1ccc(NC(=O)C2=CC(c3ccco3)=NS(=O)(=O)N2C)cc1OC -12.4%, CCc1ccccc1NC(=O)CCCSc1nc(-c2ccco2)cc(C(F)(F)F)n1 -12%, CCOCCc1nn2c(=O)cc(COC(=O)c3ccc(NC(=O)C4CCCCC4)cc3)nc2s1 18.8%, COc1cc(C)c(Cc2cnc(N)nc2N)cc1OC -39.8%, CCN(c1ccccc1)S(=O)(=O)c1nnc(NC(=O)c2ccccc2OC)s1 2.68%, O=C(CS(=O)(=O)c1cccc2nsnc12)N1CCN(c2ccccc2F)CC1 -15.1%, Cc1cc(NC(=O)c2ccc3c(c2)N(Cc2cccc(Cl)c2)C(=O)c2ccccc2S3(=O)=O)ccc1Br -1.33%, COc1ccccc1CNc1nc2ccc(C)cc2n2nnnc12 -10.1%, Cc1nn(-c2ccccc2)c(OC(=O)c2ccccc2Br)c1S(=O)(=O)c1ccccc1 34.5%, CC1=C(C(=O)Nc2ccccc2Cl)C(c2cccc(O)c2)n2ncnc2N1 (centres undefined) -4.58%, O=C1CC(c2c(Cl)cccc2Cl)c2c(ccc3ccccc23)N1 (centres undefined) 20.3%, O=C(Nc1ccccc1C(F)(F)F)c1ncoc1-c1ccco1 -9.77%, COc1cc(C2C(=O)N(C3CCCCC3)CC(=O)N2CCc2ccccc2)ccc1OC(C)C (centres undefined) -13%, CCCCN(C)CCCNC(=O)C1CCN(S(=O)(=O)CCC)CC1 0.498%, COc1ccc(CNC(=O)c2cc(Nc3ccccc3C)nc3ccccc23)cc1 -14.3%, CCN(CC)c1ccc(CNCCCSc2nnnn2C)cc1 3.62%, COc1ccc(Cl)cc1NC(=O)CSc1cn(CC(=O)N2CCCCC2)c2ccccc12 -15%, CCOc1ccc(CN2C(=O)c3ccccc3Sc3ccc(C(=O)NCc4ccco4)cc32)cc1 -27.9%, Cc1oc(-c2cccc(Cl)c2)nc1CN1CCC(C(=O)NC(C)c2ccccc2)CC1 (centres undefined) 6.77%, C[C@H]1C[C@H](O)c2ccsc2S1(=O)=O -8.17%, COCCNc1nc2c(c(=O)n(C)c(=O)n2C)n1Cc1c(F)cccc1Cl 18.5%, Cc1oc2ncn(C)c(=O)c2c1C(=O)N1CCN(c2cccc(C(F)(F)F)c2)CC1 -5.92%, CC1CCN(C(c2ccccc2)c2sc3nc(-c4ccco4)nn3c2O)CC1 (centres undefined) -17.4%, O=C(CSc1nc(-c2ccccc2)cn1-c1ccccc1F)Nc1ccc(F)cc1 -25.5%, COc1ccc(CNS(=O)(=O)c2cc3c(cc2Cl)N(C(C)=O)CCO3)cc1 4.31%, COc1ccc(NC(=O)CSc2nc(-c3cc(OC)c(OC)c(OC)c3)[nH]c2-c2ccc(F)cc2)cc1 -18.9%, Cc1ccc(Nc2cc(C(=O)NCCc3ccccc3)c3ccccc3n2)c(C)c1 28.9%, COc1cc(NC(=O)CN2CCN(S(=O)(=O)c3ccc(Br)cc3)CC2)cc(OC)c1 -2.38%, O=C(Cn1nc(-c2ccc(Cl)cc2)c2ccccc2c1=O)Nc1cccc(Br)c1 -0.674%, CCCOC(=O)c1cccc(NC(=O)c2c(-c3ccccc3Cl)noc2C)c1 -24.6%, CCCCC(=O)Nc1c(C(=O)N2CCN(c3ccccc3F)CC2)oc2ccccc12 -34.4%, O=C(Nc1cccc(F)c1)C1CCCN(S(=O)(=O)c2cccc3cccnc23)C1 (centres undefined) 10.9%, COc1ccc(CNC(=O)C2CCN(c3nnc(-n4c(C)ccc4C)s3)CC2)c(OC)c1 -21.7%, Cc1cccc(C2CN(C)CCc3c2cc(O)c(O)c3Cl)c1 (centres undefined) 2.98%, Cc1nc2ccc(S(=O)(=O)N(C)CC(=O)Nc3ccc(C(C)C)cc3)cc2s1 -7.43%, Cc1ccccc1Cn1c(COc2ccc(Cl)cc2)nc2ccccc21 -9.78%, CC1CCN(S(=O)(=O)c2ccc3c(c2)c(=O)c(C(=O)N2CCN(c4cccc(Cl)c4)CC2)cn3C)CC1 -5.82%, Cc1ccc(-n2ncc(C(=O)NCCN3CCc4ccccc4C3)c2C2CCN(C(=O)OC(C)(C)C)CC2)cc1C -31.5%, COc1ccc(NC(=O)CN2CCN(CC(=O)Nc3ccccc3F)CC2)c(OC)c1 -15.5%, O=c1c2cc3c(cc2nc2sc(Nc4ccccc4)nn12)OCO3 -3.77%, Cc1cccc(C)c1NC(=O)CN1CCN(CCCC(c2ccc(F)cc2)c2ccc(F)cc2)CC1 -10.3%, COc1ccc(-c2nc(SCC(=O)NC(C)CCc3ccccc3)n[nH]2)cc1 (centres undefined) 17.3%, Cc1nc(N=Nc2cc(S(=O)(=O)O)c3cc([N+](=O)[O-])cc(S(=O)(=O)O)c3c2)c(COP(=O)(O)O)c(C=O)c1O -22.6%, COc1ccc(S(=O)(=O)c2c(Nc3cccc(C)c3C)sc(C(=O)c3ccccc3)c2N)cc1 -30.4%, COC(=O)c1ccc(NC(=O)CSc2cn(CC(=O)N3CCCCC3)c3ccccc23)cc1 2.22%, CCN(c1ccccc1)S(=O)(=O)c1c(C)nc2scc(C)n2c1=O -3.06%, COc1ccc(N2CCN(c3ncnc4c3cnn4-c3ccc(F)cc3)CC2)cc1 -11%, CCOC(=O)c1c(C)oc2nc(C)nc(NCCc3ccc(OCC)c(OCC)c3)c12 -20.7%, COc1ccc(C(=O)NCC(c2ccc3c(c2)OCO3)N2CCN(C)CC2)cc1 (centres undefined) 5.54%, O=S(=O)(c1ccc(F)cc1)N(CC(O)Cn1c2ccccc2c2ccccc21)c1ccccc1 (centres undefined) 19.9%, CCOc1ccc(CCNC(=O)c2nnc(Cc3ccc(Cl)cc3Cl)o2)cc1OCC -3.04%, COc1cc(OC)c(N(C)C(=O)c2c(C)oc3ncnc(N4CCCCC4)c23)cc1Cl -6.56%, COc1ccc(CNC(=O)C2CCCN(S(=O)(=O)c3ccc4c(ccn4C)c3)C2)c(OC)c1 (centres undefined) -18.6%, Cc1ccc2c(=O)cc(C(=O)NCc3ccccc3)oc2c1 44.2%, CCOc1ccc2nc(N3CCN(C(=O)c4ccco4)CC3)sc2c1 21.4%, CCn1cc(/C=C(\NC(=O)c2ccc(C)cc2)C(=O)NCCCn2ccnc2)c2ccccc21 26.6%, CCOC(=O)c1cc2c(=O)n3ccccc3nc2n(CC2CCCO2)c1=NC(=O)c1ccccc1C (centres undefined) -1.99%, COc1ccc(NC(C)=O)cc1NC(=O)C1(c2cccs2)CCOCC1 -12.4%, Cc1ccc(C)c(N2CCN(C(=O)Cc3c(C(=O)O)c(C)cn3C)CC2)c1 -4.29%, Cc1cc(C)cc(-n2c(SCC(=O)N3CCC(C)CC3)nc3c([nH]c4ccccc43)c2=O)c1 -7.11%, CCc1ccc(-n2nc(CO)c(C(=O)NCCc3ccccc3)n2)cc1 -5.6%, O=C(CSc1nc2c([nH]c3ccccc32)c(=O)n1-c1ccc(F)cc1)N1CCc2ccccc21 -4.86%, COc1cccc(C(=O)N2CCCCC2CCN2CCCCC2)c1 (centres undefined) -12.9%
